Source: the supplement of paper PMC4967469

Legend:
Experiment in all cases: Viability of human cancer cell lines after 72 h of drug (GDSC screen)
[1] = compound: COc1cc2nccc(Oc3ccc(NC(=O)Nc4cc(C)on4)c(Cl)c3)c2cc1OC [AV-951]; conditions: top dose 0.128 µM; top dose inferred
Protocol: (§1)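 Human cancer cell lines in 384-well plates, medium with 10% serum, drug for 72 h over a 256-fold dose range (nine 2-fold or five 4-fold steps up to the top dose). Adherent lines were fixed and stained with the nucleic acid dye Syto60, suspension lines read with resazurin; signal relative to control wells, capped at 0 and 100%. One two-parameter sigmoid per drug and line, fitted in a mixed model over all curves with the slope shared within a line.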

[2] = compound: CCNC(=O)C[C@@H]1N=C(c2ccc(Cl)cc2)c2cc(OC)ccc2-n2c(C)nnc21 [I-BET-762]; conditions: top dose 20 µM; top dose inferred
Protocol: as §1

[3] = compound: CC(=O)Nc1cccc(-n2c(=O)n(C3CC3)c(=O)c3c(Nc4ccc(I)cc4F)n(C)c(=O)c(C)c32)c1 [Trametinib]; conditions: top dose 1 µM
Protocol: as §1

[4] = compound: CCN1CCN(Cc2ccc(NC(=O)c3ccc(C)c(/C=C/c4cnc5[nH]ccc5c4OC)c3)cc2C(F)(F)F)CC1 [HG-6-64-1]; conditions: top dose 5.12 µM; top dose inferred
Protocol: as §1

[5] = compound: Nc1ccccc1NC(=O)c1ccc(CNC(=O)OCc2cccnc2)cc1 [MS-275]; conditions: top dose 5 µM; top dose inferred
Protocol: as §1

[6] = compound: O=C(NC(COc1ccc2[nH]c(=O)[nH]c2c1)c1ccccc1)c1cccn(Cc2ccc(F)c(F)c2)c1=O [KIN001-244]; conditions: top dose 20 µM; top dose inferred
Protocol: as §1

[7] = compound: CCc1cncnc1N1CCN(Cc2nc3ccc(C(F)(F)F)cc3[nH]2)CC1 [PF-4708671]; conditions: top dose 10 µM; top dose inferred
Protocol: as §1

Row | Cell Line | AUC [1] | IC50 [1] [nM] | AUC [2] | IC50 [2] [nM] | AUC [3] | IC50 [3] [nM] | AUC [4] | IC50 [4] [nM] | AUC [5] | IC50 [5] [nM] | AUC [6] | IC50 [6] [nM] | AUC [7] | IC50 [7] [nM]
1 | Becker (glioma, adherent) | 0.98 | > 128 | 0.948 | > 20000 | 0.516 | 69.4 | 0.397 | 161 | 0.882 | > 5000 | 0.875 | > 20000 | – | –
2 | COLO-824 (breast, adherent) | 0.986 | > 128 | 0.929 | > 20000 | 0.949 | > 1000 | 0.933 | > 5120 | 0.98 | > 5000 | 0.841 | 14300 | – | –
3 | DB (B-cell lymphoma, suspension) | 0.98 | > 128 | 0.481 | 1100 | 0.863 | > 1000 | 0.705 | 1310 | 0.756 | 1910 | 0.85 | 18300 | – | –
4 | EHEB (lymphoid neoplasm, suspension) | – | – | – | – | 0.854 | > 1000 | 0.635 | 895 | 0.656 | 1030 | – | – | 0.973 | > 10000
5 | ES3 (Ewing sarcoma, adherent) | 0.978 | > 128 | 0.761 | 7430 | 0.93 | > 1000 | 0.815 | 3000 | 0.945 | > 5000 | 0.835 | 14100 | – | –
6 | ES4 (Ewing sarcoma, adherent) | 0.981 | > 128 | – | – | 0.9 | > 1000 | 0.706 | 1340 | 0.651 | 876 | 0.778 | 9320 | 0.922 | > 10000
7 | EoL-1-cell (haematopoietic neoplasm, suspension) | – | – | 0.592 | 2160 | 0.149 | 6.17 | 0.046 | < 20 | 0.985 | > 5000 | 0.759 | 6260 | 0.826 | 5120
8 | GA-10 (Burkitt lymphoma, suspension) | – | – | – | – | 0.981 | > 1000 | 0.315 | 107 | 0.204 | 50.4 | – | – | 0.982 | > 10000
9 | Hs-445 (Hodgkin lymphoma, suspension) | 0.983 | > 128 | 0.864 | 15300 | 0.894 | > 1000 | 0.744 | 1500 | 0.762 | 1660 | 0.892 | > 20000 | – | –
10 | IM-9 (myeloma, suspension) | – | – | – | – | 0.585 | 103 | 0.955 | > 5120 | 0.985 | > 5000 | – | – | 0.912 | > 10000
11 | IST-SL2 (small cell lung carcinoma, suspension) | 0.968 | > 128 | 0.984 | > 20000 | 0.973 | > 1000 | 0.627 | 716 | 0.771 | 1900 | – | – | 0.969 | > 10000
12 | KARPAS-231 (B-cell leukaemia, suspension) | 0.926 | 125 | – | – | 0.993 | > 1000 | 0.335 | 126 | 0.392 | 169 | – | – | 0.979 | > 10000

IC50 is the fitted dose that halves viability relative to control wells, and lower means more sensitive; a limit (>, <) means that the fit lies beyond the doses tested. The AUC spans the tested range (256-fold, ending at the top dose) of the same fit; values near 1 show little effect. For some of these results: An inferred top dose was calculated from the reported fits.
